The values that follow come from paper PMC12136788.

The labels stand for the following.
B1: chr2:227144361:227144754:-|three_prime_utr|ENSG00000081052|control|control|control (ssRNA)
RNA: GGGAGUUCUACAGUCCGACGAUCGGCAAUGAUGGCAGCCAGAGAGAGGAAAGCAUGGAUCUUGUCACUGAUGACAAGUCGGCUAGUAGGAGCAGCCUCAUAGAAAUAAAAAGUAGCUUUCUGGAAUUAAUUCCUUUACUCUUUCAACAGAGGAUUGAGCAUCA
B2: ENSG00000070961:be:win_1651|CDS|ENSG00000070961|bound_else_gene|NA|bound_elsewhere_windowed (ssRNA)
RNA: GGGAGUUCUACAGUCCGACGAUCGGACUUCUUUUGGAUUUAAAACGGGAUUAUCAGGAUGUUAGAAAUGAAAUACCAGAAGAAGCACUGUACAAAGUCUACACCUUCAAUUCUGUUAGGAAGUCCAUGAGUACUGUCCUGAAACAACAGAGGAUUGAGCAUCA
B3: ENSG00000136451:be:win_2351|3pUTR|ENSG00000136451|bound_else_gene|NA|bound_elsewhere_windowed (ssRNA)
RNA: GGGAGUUCUACAGUCCGACGAUCGAAGUCAAGUGUGUGGACAGGCAAGCUCCUAAUAAACAGAGUCCAGUGGGAUUCCUAUUUAGGAGCCAAGGAGUACUUUGGAACAGUACAAAUAUAUUGCUUUAAAUUGGAAGACGCUGGCAACAGAGGAUUGAGCAUCA
B4: chr12:85264020:85264122:+|3pUTR|ENSG00000133640|unk|FALSE|unique (ssRNA)
RNA: GGGAGUUCUACAGUCCGACGAUCCAUAGUAUUUCAGUUACUUUCCACAGCUGUGUUGCUCAAUAAUAGCAUCCAGUGAACUUUAGUAUUUUUUUGUUUUUCCUGUAUUUUAUUAAAAUAUUUCAUCUAGAGAUAACUGAAGUGCAACAGAGGAUUGAGCAUCA
B5: chr1:162783069:162783171:+|3pUTR|ENSG00000162733|unk|total|mutant (ssRNA)
RNA: GGGAGUUCUACAGUCCGACGAUCUGAAAGCCGUUCAAAUUUGAAUCCGAAGAAUGAAGCCCGGACUUAUUUGGAAAAGGAGACCGAAAAAAAAUGAUCAGAAACUGUGGGGCCUUAUUACCUUUGCAGUAAGUUAUCUUCUUCCAACAGAGGAUUGAGCAUCA
B6: chr12:125025615:125025697:+|3pUTR|ENSG00000184992|msi1_unk|total|mutant (ssRNA)
RNA: GGGAGUUCUACAGUCCGACGAUCGGACACAUUCCCAGAAGAGCGGAAAGAUCAUUGACGUGGAACUACACACGAAGUGUAAUCCGUGGGGGAAAAAAUAUUUUUUAAACAAAGGAUAUAACCAUAUUCCGUUGUACAGUAAGACAACAGAGGAUUGAGCAUCA
B7: chr17:34942483:34942643:-|CDS|ENSG00000132141|control|control|control (ssRNA)
RNA: GGGAGUUCUACAGUCCGACGAUCGAAAGAGAAAUUGGUAAAAGCUGAAAGAAAAUUUAUUGAAGAUAGAGUACAAAAAAUAAUAGACCUGAAGGACAAAGUCUGUGCUCAGUCAAAUAAAGGAUUUGUCGUCAUUAAUCAAAACAACAGAGGAUUGAGCAUCA
B8: chr2:223975255:223975490:-|3pUTR|ENSG00000135919|msi1|FALSE|bound_elsewhere (ssRNA)
RNA: GGGAGUUCUACAGUCCGACGAUCUUUAAAUUCUUUUCCCCCAUCCCCCUCCAAAGUCUUGAUAGCAAGCGUUAUUUUGGUGGUAGAAACGGUGAAAUCUCUAGCCUCUUUGUGUUUUUGUUGUUGUUGUUGUUGUUGUUUUAUCAACAGAGGAUUGAGCAUCA
B9: chr13:30205178:30205279:-|3pUTR|ENSG00000102781|msi1|total|mutant (ssRNA)
RNA: GGGAGUUCUACAGUCCGACGAUCUUGGCAGUUUCUCUAACGACUCUGUACCGCUUCUGGCUUCUACUACUGAAACAAGAGUUCCGAUCACUGAUGGAGAGGCACCGUAAUCUGUUUGUGCUUUGGAAAAAUAUAUAAAAGUUUCAACAGAGGAUUGAGCAUCA
B10: chr7:56058368:56058516:+|CDS|ENSG00000146731|unk|FALSE|unique (ssRNA)
RNA: GGGAGUUCUACAGUCCGACGAUCUACAAGAGUGCAGAAGAGAGAGAAAAACUCGUGAAAGCUGAAAGAAAAUUCAUUGAAGAUAGGGUUAAAAAAAUAAUAGAACUGAAAAGGAAAGUCUGUGGCGAUUCAGAUAAAGGAUUUCAACAGAGGAUUGAGCAUCA
B11: chr11:126202095:126203417:-|three_prime_utr|ENSG00000165526|control|control|control (ssRNA)
RNA: GGGAGUUCUACAGUCCGACGAUCAAGGUAAAGCAACUCAGCUGCUACAGGGCUUUUAAUGGAGAACAAAGUCUAUUUACUGAUAGUUUGGCUGCACUGUGGAAAAGCCUGCUGGAAGUCUCCCUGCCGUGGGCUCUCAUUGCCCAACAGAGGAUUGAGCAUCA
B12: chr10:110135209:110135310:+|3pUTR|ENSG00000148700|msi1|FALSE|bound_elsewhere (ssRNA)
RNA: GGGAGUUCUACAGUCCGACGAUCCUCUCUAUUGGAAGAUUUUUUUAAUGUUCUACAUCAUUUAUGUUGUAUUACAAUGUAUGUAGAAAUAGUAACCUGUGAACUAUGCUUUUCCAUAACUUUUUAAAAAUAUAUAUAUCUAAACAACAGAGGAUUGAGCAUCA
B13: chr8:17969608:17969733:+|CDS|ENSG00000078674|unk|FALSE|unique (ssRNA)
RNA: GGGAGUUCUACAGUCCGACGAUCUUCUAAUUUUGGAGAUUUUUCUCAGAAUAUCUCUACACCCAGUGAACAGCAGCAACCCUUAGCCCAGAAUUCUUCAGGAAAAACAGAAUAUAUGGCUUUUCCAAAACCUUUUGAAAGCAGCAACAGAGGAUUGAGCAUCA
B14: chr5:136988535:136988636:-|CDS|ENSG00000152377|msi1|total|mutant (ssRNA)
RNA: GGGAGUUCUACAGUCCGACGAUCGGAAAGCAUCAGGCUUGGUGGCAGCUGAGAUAUGCCUUUUGUUUGGCAGGGUUUGACACCCGCAUCCUGCCCAUCUGCAAGGACUCCCUGGGCUGGAUGUUCAACAAGUUGGACAUGAACCAACAGAGGAUUGAGCAUCA
B15: chr2:1632960:1633155:-|3pUTR|ENSG00000130508|msi1|total|mutant (ssRNA)
RNA: GGGAGUUCUACAGUCCGACGAUCGUCCAUUUUUCCGGUAUCCGAUAUGGCAGAAAAACCAUUUCCACUAUGCAAAGUUCUUUCCGACGUCAGUGAAAAUCAACUCUCAUACCUCAUGGUCUCUCUUUAAUUGACCAAAACCUUCAACAGAGGAUUGAGCAUCA
B16: ENSG00000121579:stop:overlap|stop_codon|ENSG00000121579|stop_codon|NA|stop_codon (ssRNA)
RNA: GGGAGUUCUACAGUCCGACGAUCUCAGCUACAAUGACAAGUUCUACAAGGAUGUGCUGGAGCCUAUUUCAAUGAUAUUGCUGUAGGUGCAGUAUGCUGUAGGGUGGAUCAUUCACAGAAUCAGAAGAGACUUUACAUCAUGACCAACAGAGGAUUGAGCAUCA
B17: chr11:4094911:4095012:+|5pUTR|ENSG00000167325|unk|total|mutant (ssRNA)
RNA: GGGAGUUCUACAGUCCGACGAUCAGCAGCGCCUGGAACCUAACCCUUCCCACUCUGUCACCUUCUCGAUCCCGCCGGCGCUUCCGAGCCGCAGUCCAGUCUUGGAUCCUUCAGAGCCUCAGCCACCCGCUGCGAUGCAUGUGACAACAGAGGAUUGAGCAUCA
B18: chr6:158785413:158785514:-|CDS|ENSG00000092820|msi1|total|mutant (ssRNA)
RNA: GGGAGUUCUACAGUCCGACGAUCGAGCUCAUCCAGGACAUCACCCAGAAACUUUUCUUCCUCCAAGUGAAGGAAGGAAUCCUCCGCGAUGAGAUCUACUGCCCCCCUGAGACUGCCGUGCUCUUGGGGUCCUACGCUGUGCAGCAACAGAGGAUUGAGCAUCA
B19: chr6:89938216:89938327:-|CDS|ENSG00000112182|unk|total|mutant (ssRNA)
RNA: GGGAGUUCUACAGUCCGACGAUCUCUUCCAAGGAACGAUUUCCAGAUGAUGAUUAAAAUGCACAAGCUAACCUCAGAACAGUCCGAGUUUAUUCAUGAUGUCCGACGGCGCAGCAAGAACCGCAUCGCGGCCCAGCGCUGCCGCAACAGAGGAUUGAGCAUCA
B20: chr7:130192614:130192715:-|CDS|ENSG00000146842|msi1|FALSE|unique (ssRNA)
RNA: GGGAGUUCUACAGUCCGACGAUCUACAUGACCGACCUACGAACUUUGGAUACUUUUCUCAGAAGUGAAGAGGAGAAACAGCAUAGGGUUAAGCUGGGUACAUAUAUAUUUCUGUAUAUCUACUAUACAUAUUUUUGGUGUCAACAACAGAGGAUUGAGCAUCA
B21: ENSG00000107863:be:win_4651|CDS|ENSG00000107863|bound_else_gene|NA|bound_elsewhere_windowed (ssRNA)
RNA: GGGAGUUCUACAGUCCGACGAUCAGCACGUCUUCCCAGGCCUCCCUGGCAAGGUUUUCCAUGAAGAAAUCAACCAGUCCAGAAACGAAACAUAGCGAGUUUUUGGCCAACGUCAGCACCAUCACCUCAGAUUAUUCCACCACACAACAGAGGAUUGAGCAUCA
B22: chr10:24583932:24584033:-|3pUTR|ENSG00000107863|unk|total|mutant (ssRNA)
RNA: GGGAGUUCUACAGUCCGACGAUCAACAAAAGUGCCUCAUCAUAAAAAUACAGUUGGUUUUCCGGGUGCCAUAUUGUUAAAAUCCGAUAACUUACUUACAUUGAAUAAACGAAUGCGUUUUAUUGGUAACAGAUAUCAUUACAUCAACAGAGGAUUGAGCAUCA

This is one part of the list.

The assay deals with MSI1 full-length (mouse, UniProt Q61474 1-362). Description: nsRBNS (natural sequence RNA bind-n-seq); RBNS binding buffer (assumed for nsRBNS): 25 mM Tris pH 7.5, 150 mM KCl, 3 mM MgCl2, 0.01% Triton X-100, 500 ug/ml BSA, 20 U/ml SUPERase-In, 4 C; UNK is unkempt and MSI1 is Musashi-1; names of the RNAs are library labels; protein concentration not given here; high values mean tight binding.
Sequence of UniProt Q61474 (Q61474 whole entry): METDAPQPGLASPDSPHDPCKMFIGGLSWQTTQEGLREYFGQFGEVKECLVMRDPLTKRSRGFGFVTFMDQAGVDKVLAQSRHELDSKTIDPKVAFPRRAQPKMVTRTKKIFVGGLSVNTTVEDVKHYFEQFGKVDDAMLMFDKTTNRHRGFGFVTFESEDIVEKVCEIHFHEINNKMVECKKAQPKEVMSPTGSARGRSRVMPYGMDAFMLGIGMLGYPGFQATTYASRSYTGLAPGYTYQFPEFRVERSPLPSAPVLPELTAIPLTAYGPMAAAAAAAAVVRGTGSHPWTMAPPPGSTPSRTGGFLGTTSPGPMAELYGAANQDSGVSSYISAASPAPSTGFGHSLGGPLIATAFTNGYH
As to B1, the binding signal turned out to be 2.59 enrichment R.
The same measure for B2: 0.47 enrichment R; for B3: 0.512 enrichment R.
For B4 the value was 3.88 enrichment R.
On to B5, for which the binding signal amounted to 0.267 enrichment R.
In turn, B6 displayed a binding signal of 0.405 enrichment R.
In the case of B7, the binding signal came to 1.05 enrichment R.
As for B8, the binding signal worked out at 3.89 enrichment R.
For B9 the value was 0.409 enrichment R.
The same measure for B10: 3.04 enrichment R.
For B11 the value was 0.442 enrichment R; for B12, 15.2 enrichment R; for B13, 0.487 enrichment R.
B14 had a binding signal of 0.511 enrichment R.
For B15 the value was 0.353 enrichment R; for B16, 0.48 enrichment R; for B17, 0.592 enrichment R.
For B18 the value was 0.403 enrichment R; for B19, 0.331 enrichment R.
The same measure for B20: 0.676 enrichment R; for B21: 0.452 enrichment R; for B22: 0.389 enrichment R.
